59 compounds from PubChem BioAssay AID360 (National Center for Advancing Translational Sciences (NCATS), 2006) can be followed below.

Each structure is given as a SMILES string. The whole screen tested about 48,000 compounds, of which about 550 (1.1%) were called active. Another 4% or so got no clear call; they are omitted. Cut-off read from the data, not from the text of the source: active = potency below about 15 µM; inconclusive = mostly about 16 µM to 33 µM; inactive = weaker than that. Some of the results follow.
Potency is the fitted concentration of half-maximal effect.

Chain of UniProt P04062 (P04062 whole entry, looked up): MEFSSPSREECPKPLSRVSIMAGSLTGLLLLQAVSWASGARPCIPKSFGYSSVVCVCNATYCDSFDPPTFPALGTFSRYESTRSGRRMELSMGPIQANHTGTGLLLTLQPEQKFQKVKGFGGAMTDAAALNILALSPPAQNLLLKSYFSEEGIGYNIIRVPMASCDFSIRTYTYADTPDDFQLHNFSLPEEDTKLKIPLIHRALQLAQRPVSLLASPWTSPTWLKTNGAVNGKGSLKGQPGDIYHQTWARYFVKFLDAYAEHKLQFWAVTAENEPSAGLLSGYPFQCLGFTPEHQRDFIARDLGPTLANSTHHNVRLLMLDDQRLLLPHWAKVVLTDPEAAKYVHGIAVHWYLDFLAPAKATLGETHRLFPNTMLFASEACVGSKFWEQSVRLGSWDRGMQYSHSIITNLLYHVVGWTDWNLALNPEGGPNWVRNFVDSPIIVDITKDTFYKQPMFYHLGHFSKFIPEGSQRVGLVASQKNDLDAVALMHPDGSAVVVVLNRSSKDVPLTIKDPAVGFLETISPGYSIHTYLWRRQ

The assay concerns the target Lysosomal acid glucosylceramidase (Homo sapiens) (UniProt P04062). Put plainly: Glucocerebrosidase.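 Note: the screen sought inhibitors.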 The note with it: purified enzyme, resorufin glucoside fluorescence (screen aimed at inhibitors), 20 min. Put shortly:
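Normal human glucocerebrosidase (0.2 nM final) was assayed with resorufin β-D-glucopyranoside (30 uM final) in 50mM citric acid/KH2PO4, 10mM sodium taurocholate, 0.01% tween-20, pH 5.9. Compounds were titrated; fluorescence (Ex 548, Em 600) read after 20 min at RT.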
With `CCOC(=O)c1[nH]c(C)c(CCC(=O)OC)c1C`, the Potency is inactive: > 76.9 µM. As to `CCc1nnc(NC(=O)CCC(=O)N2CCN(Cc3ccccc3)CC2)s1`, the Potency was inactive: > 76.9 µM. Then `CC(C)(C)C1=Nn2c(nnc2-c2n[nH]c3c2CCC3)SC1`, with inactive: > 76.9 µM; and `O=C1CC(SCc2nc3ccccc3[nH]2)C(=O)N1c1cccc(F)c1` (centres undefined), with inactive: > 76.9 µM; and `C=C(C)CSc1nc(N)c2c(C)c(C)sc2n1`, with inactive: > 76.9 µM.

Regarding `CC(=O)c1ccc(N2C(=NC(=O)C(C)C)SC3CS(=O)(=O)CC32)cc1` (centres undefined), the Potency is inactive: > 76.9 µM.

As for `O=C1NC(=O)C2C3c4ccccc4C(c4ccccc43)C12` (centres undefined), the Potency is inactive: > 76.9 µM.

With `CCOC(=O)c1ccc2nc(C(F)(F)F)[nH]c(=O)c2c1`, the Potency is inactive: > 76.9 µM. Next, `CC(C(=O)Nc1ccc2c(c1)OCO2)N(c1ccc(Cl)cc1)S(C)(=O)=O` (centres undefined): inactive: > 76.9 µM; `c1ccc(C2C3=C(Nc4ncnn42)c2ccccc2CCC3)cc1` (centres undefined): inactive: > 76.9 µM; `CCOC(=O)NC(=O)CSc1nnnn1-c1ccccc1`: inactive: > 76.9 µM. Then `COc1ccc(S(=O)(=O)NCCC(=O)NCc2ccc(F)cc2)cc1`, with inactive: > 76.9 µM. Then `CCS(=O)(=O)N1CCCC(C(=O)N2CCc3ccccc3C2)C1` (centres undefined), with inactive: > 76.9 µM. As to `O=C(NCc1ccc(N2CCCC2=O)cc1)c1cn(Cc2ccccc2)nn1`, the Potency is inactive: > 76.9 µM. Then `CSCCC(NC(=O)c1cc(C(C)(C)C)oc1C)C(=O)O` (centres undefined), with inactive: > 76.9 µM; and `CCOCCCn1c(=NC(C)=O)c(C(=O)OCC)cc2c(=O)n3ccccc3nc21`, with inactive: > 76.9 µM; and `N#Cc1c2n(c3c(=O)n(Cc4ccccc4)cnc13)CCCC2`, with inactive: > 76.9 µM. Then `CCOC(=O)N1CCN(S(=O)(=O)c2ccc3[nH]cc(C(=O)O)c(=O)c3c2)CC1`, with inactive: > 76.9 µM; and `CCn1c(=O)cc(SCC(=O)Nc2ccc3c(c2)OCCO3)c2ccccc21`, with inactive: > 15.4 µM; and `CCOC(=O)C1=C(C)NC(C)=C(C(=O)OCC)C1C(=O)OC1CCOC1=O` (centres undefined), with inactive: > 76.9 µM. As to `Cc1ccc2[nH]c(=O)c(N3CCOCC3)c(-c3ccccc3)c2c1`, the Potency was inactive: > 76.9 µM. For `CCc1nnc2n1N=C(c1ccc(-c3cc(Cl)ccc3Cl)o1)CS2`, the Potency was inactive: > 76.9 µM. Next, `COCCN1C(=O)c2oc3c(C)cc(C)cc3c(=O)c2C1c1cccc(O)c1` (centres undefined): inactive: > 76.9 µM; `CC1=C(C(=O)OC(C)C)C(/C=C/c2ccccc2)NC(=O)N1` (centres undefined): inactive: > 76.9 µM; `Cc1c(C(=O)OC(C)CCN(C)C)oc2ccccc12` (centres undefined): inactive: > 76.9 µM. With `CCOC(=O)N1CCC(n2c(SCC(=O)Nc3nccs3)nc3ccsc3c2=O)CC1`, the Potency was inactive: > 76.9 µM. Next, `O=c1cc(O)c2c(=O)n3c4c(cccc4c2o1)CCC3`: inactive: > 76.9 µM; `CSc1nc(-c2ccccc2O)nc(-c2ccccc2O)n1`: inactive: > 76.9 µM. `COc1ccc(-c2noc(-c3ccccc3C(=O)NCc3ccco3)n2)cc1OC`: the Potency was inactive: > 76.9 µM. Next, `CN(C)c1ccc(-c2nnn(CC(=O)N3c4ccccc4CCc4ccccc43)n2)cc1`: inactive: > 76.9 µM. Then `c1ccc(Cn2nnnc2C(c2cccs2)N2CCc3ccccc3C2)cc1` (centres undefined), with inactive: > 76.9 µM; and `Cc1noc(C)c1CSc1nnc(-c2ccccc2F)n1CCc1ccccc1`, with inactive: > 76.9 µM. Next, `Cc1ccc(S(=O)(=O)N2CCN(C(=O)C3Cc4ccccc4CN3C(=O)c3ccco3)CC2)cc1` (centres undefined): inactive: > 76.9 µM; `O=C(Nc1ccccc1)N1CCCN(Cc2ccccc2F)C1`: “inactive”; `CCn1c(SCC(=O)Nc2cc(C)ccc2C)nnc1-c1cnccn1`: inactive: > 76.9 µM. For `COC(=O)c1ccc(C(=O)OC)c(NC(=O)CN2CCN(c3ccccc3)CC2)c1`, the Potency is inactive: > 76.9 µM.

As to `COC(=O)c1sc(NC(=O)c2cnccn2)c(C(=O)OC)c1C`, the Potency was inactive: > 76.9 µM. Next, `Cc1cc(C(=O)NCCCN2CCCC2=O)cs1`: inactive: > 76.9 µM.

Take `CC(C)NC(=O)c1ccc2c(c1)nnn2C`: the Potency was inactive: > 76.9 µM. Then `N#Cc1cc2c(nc1SCC(=O)NCc1ccc3c(c1)OCO3)CCCCC2`, with inactive: > 76.9 µM; and `N#C/C(=C\c1ccc(O)c(O)c1)S(=O)(=O)c1ccccc1`, with “inactive”. For `COc1ccc(CC(CC(=O)O)C(=O)Nc2ccccc2)cc1` (centres undefined), the Potency is inactive: > 76.9 µM. Then `COc1cc(CC(=O)OCC(=O)Nc2ccc(S(=O)(=O)N3CCCC3)cc2)cc(OC)c1OC`, with inactive: > 76.9 µM; and `CC1CCN(S(=O)(=O)c2ccc3[nH]c(=O)cc(C(=O)O)c3c2)CC1`, with inactive: > 76.9 µM; and `O=C1CC(N2CCN(c3nc4ccccc4s3)CC2)C(=O)N1Cc1cccs1` (centres undefined), with inactive: > 76.9 µM. On to `CCCCn1nc(C(=O)O)ccc1=O`, for which the Potency was inactive: > 76.9 µM. Then `COc1ccccc1NC(=O)c1ccc(Br)o1`, with inactive: > 76.9 µM. On to `CCCCCc1c(C)nc(Nc2ccccc2)[nH]c1=O`, for which the Potency was inactive: > 76.9 µM. For `OCCCCNc1cccc2ccccc12`, the Potency is inactive: > 76.9 µM.

Consider `O=C(NCCNCCO)c1c(O)c2cccc3c2n(c1=O)CCC3`, for which the Potency is inactive: > 76.9 µM.

Consider `CCCOC(=O)C1C2C=C[C@]3(CN(CCc4ccccc4)C(=O)[C@H]13)O2` (some centres undefined), for which the Potency was inactive: > 76.9 µM. With `CN(C)CCC(=O)c1ccc(Cl)cc1`, the Potency was inactive: > 76.9 µM. Next, `c1ccc(-c2nnc3sc(CN4CCc5ccccc54)cn23)cc1`: inactive: > 76.9 µM; `CCOC(=O)c1sc(N)c(C#N)c1CSc1nnc(C2CCCCC2)n1N`: inactive: > 76.9 µM. Take `CCNC(=O)CSc1nc2cc(OC)c(OC)cc2c(=O)n1CCC1=CCCCC1`: the Potency was inactive: > 76.9 µM.

Consider `CC(C)(C)c1cc(C(=S)N2CCN(CCO)CC2)cc(C(C)(C)C)c1O`, for which the Potency entry was “inactive”. Then `Cc1ccc(S(=O)(=O)N2CCCC(C(=O)NCc3ccccn3)C2)cc1` (centres undefined), with inactive: > 76.9 µM. Then `O=C(Nc1ccc(Br)c(Cl)c1)C1CC1`, with inactive: > 76.9 µM; and `Cc1ccc(OC(=O)c2ccc(C)c(C)c2)cn1`, with inactive: > 76.9 µM.
